Source: the supplement of paper PMC10126150
Sequences with one replicate were seen in a single cluster, so their values are uncertain.

Each sequence was assayed on ATP (assay: switch fluorescence ratio, 500 uM ATP over buffer (Cy3 cluster intensity, sum of 5 cycles each) (fold (ratio)); higher = stronger signal-on switching upon ATP binding; sequences stand for … in TCGTCGGCAGCGTCAGATGTGTATAAGAGACAGTTTTTTTTTTTTTTTTTTTTTTTTT…TC). Conditions: aptamer strand: ATP DNA aptamer (quencher-CACCTGGGGGAGTATTGCGGAGGAAGG + anchor), 100 nM annealed; ATP concentration: 500 uM; one replicate.
In short: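 Exposure to 500 uM ATP lasted 15 min at 22 °C before imaging, and a selection-buffer image was taken beforehand, for Cy3-labelled switching-strand clusters on a modified Illumina MiSeq flow-cell annealed to 100 nM quencher-labelled ATP aptamer. Five buffer/ATP cycles were run with NaOH stripping and re-annealing between them. The fluorescence ratio per cluster is summed target-cycle over summed buffer-cycle Cy3 intensity, averaged per switch-domain sequence. Clusters outside 100-1000 RFU were excluded.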

**Q.** Which switch fluorescence ratio does the source give for CTCTTACTTG here?
**A.** The switch fluorescence ratio was 1.

**Q.** With CTCTTCGAG as the sequence, how does the switch fluorescence ratio read?
**A.** Its switch fluorescence ratio is 1.02.

**Q.** Which switch fluorescence ratio does the source give for CTCTTGATTC here?
**A.** Its switch fluorescence ratio is 1.04.

**Q.** Which switch fluorescence ratio does the source give for CTCTTGCTAC here?
**A.** The switch fluorescence ratio was 5.9.

**Q.** Which switch fluorescence ratio does the source give for CTCTTTAGGC here?
**A.** The switch fluorescence ratio was 1.01.

**Q.** With CTCTTTTTTG as the sequence, how does the switch fluorescence ratio read?
**A.** The switch fluorescence ratio was 0.973.

**Q.** For CTGAAAATTA, which switch fluorescence ratio is on record?
**A.** The switch fluorescence ratio was 0.969.

**Q.** CTGAAACTAT was tested. Which switch fluorescence ratio did it give?
**A.** The switch fluorescence ratio was 0.951.

**Q.** With CTGAAATGCG as the sequence, how does the switch fluorescence ratio read?
**A.** Its switch fluorescence ratio is 1.09.

**Q.** With CTGAAATTCG as the sequence, how does the switch fluorescence ratio read?
**A.** The switch fluorescence ratio was 1.

**Q.** For CTGAAGGCTC, which switch fluorescence ratio is on record?
**A.** The switch fluorescence ratio was 1.14.

**Q.** How did the switch fluorescence ratio turn out when CTGAATACGA was run?
**A.** Its switch fluorescence ratio is 1.42.

**Q.** CTGACAATTT was tested. Which switch fluorescence ratio did it give?
**A.** The switch fluorescence ratio was 1.02.

**Q.** CTGACAGCAC was tested. Which switch fluorescence ratio did it give?
**A.** Its switch fluorescence ratio is 4.13.

**Q.** How did the switch fluorescence ratio turn out when CTGACATCTG was run?
**A.** The switch fluorescence ratio was 0.991.

**Q.** How did the switch fluorescence ratio turn out when CTGACCAGGA was run?
**A.** The switch fluorescence ratio was 1.03.

**Q.** For CTGACCGGGG, which switch fluorescence ratio is on record?
**A.** The switch fluorescence ratio was 1.08.

**Q.** CTGAGCAGAT was tested. Which switch fluorescence ratio did it give?
**A.** The switch fluorescence ratio was 1.67.

**Q.** Which switch fluorescence ratio does the source give for CTGAGCCAGC here?
**A.** Its switch fluorescence ratio is 1.03.

**Q.** With CTGAGGAAAG as the sequence, how does the switch fluorescence ratio read?
**A.** Its switch fluorescence ratio is 1.

**Q.** CTGAGGAGCC was tested. Which switch fluorescence ratio did it give?
**A.** Its switch fluorescence ratio is 1.

**Q.** CTGAGGGGCA was tested. Which switch fluorescence ratio did it give?
**A.** Its switch fluorescence ratio is 1.01.

**Q.** How did the switch fluorescence ratio turn out when CTGAGGGTT was run?
**A.** Its switch fluorescence ratio is 1.01.

**Q.** With CTGAGTCAGG as the sequence, how does the switch fluorescence ratio read?
**A.** Its switch fluorescence ratio is 1.02.

**Q.** With CTGAGTGTGT as the sequence, how does the switch fluorescence ratio read?
**A.** Its switch fluorescence ratio is 0.989.

**Q.** CTGAGTTATT was tested. Which switch fluorescence ratio did it give?
**A.** The switch fluorescence ratio was 1.03.

**Q.** For CTGAGTTCAA, which switch fluorescence ratio is on record?
**A.** The switch fluorescence ratio was 1.03.

**Q.** Which switch fluorescence ratio does the source give for CTGATAACTC here?
**A.** The switch fluorescence ratio was 1.

**Q.** CTGATCAGAT was tested. Which switch fluorescence ratio did it give?
**A.** Its switch fluorescence ratio is 0.977.

**Q.** For CTGATCAGGA, which switch fluorescence ratio is on record?
**A.** Its switch fluorescence ratio is 0.96.

**Q.** How did the switch fluorescence ratio turn out when CTGATCCCTG was run?
**A.** The switch fluorescence ratio was 1.01.

**Q.** For CTGATCTATA, which switch fluorescence ratio is on record?
**A.** Its switch fluorescence ratio is 0.974.

**Q.** For CTGATGGTAC, which switch fluorescence ratio is on record?
**A.** Its switch fluorescence ratio is 1.73.

**Q.** With CTGATGTAGA as the sequence, how does the switch fluorescence ratio read?
**A.** Its switch fluorescence ratio is 0.997.

**Q.** Which switch fluorescence ratio does the source give for CTGATGTTTA here?
**A.** Its switch fluorescence ratio is 0.997.

**Q.** CTGATTCACG was tested. Which switch fluorescence ratio did it give?
**A.** The switch fluorescence ratio was 1.03.

**Q.** With CTGCACAGAG as the sequence, how does the switch fluorescence ratio read?
**A.** The switch fluorescence ratio was 1.04.

**Q.** With CTGCACTTAT as the sequence, how does the switch fluorescence ratio read?
**A.** Its switch fluorescence ratio is 1.07.

**Q.** Which switch fluorescence ratio does the source give for CTGCAGGGTC here?
**A.** The switch fluorescence ratio was 1.21.

**Q.** How did the switch fluorescence ratio turn out when CTGCAGTCGG was run?
**A.** Its switch fluorescence ratio is 1.13.

**Q.** Which switch fluorescence ratio does the source give for CTGCCAGCCG here?
**A.** Its switch fluorescence ratio is 1.06.

**Q.** With CTGCCATCTC as the sequence, how does the switch fluorescence ratio read?
**A.** Its switch fluorescence ratio is 1.22.

**Q.** How did the switch fluorescence ratio turn out when CTGCCATTGT was run?
**A.** Its switch fluorescence ratio is 0.987.

**Q.** How did the switch fluorescence ratio turn out when CTGCCCCCCG was run?
**A.** Its switch fluorescence ratio is 3.08.

**Q.** CTGCCCGAAC was tested. Which switch fluorescence ratio did it give?
**A.** Its switch fluorescence ratio is 1.26.

**Q.** Which switch fluorescence ratio does the source give for CTGCCTAGGA here?
**A.** Its switch fluorescence ratio is 1.

**Q.** With CTGCCTTTCG as the sequence, how does the switch fluorescence ratio read?
**A.** The switch fluorescence ratio was 1.05.

**Q.** Which switch fluorescence ratio does the source give for CTGCGAATGG here?
**A.** The switch fluorescence ratio was 1.26.

**Q.** CTGCGACGTA was tested. Which switch fluorescence ratio did it give?
**A.** The switch fluorescence ratio was 0.996.

**Q.** With CTGCGCTATG as the sequence, how does the switch fluorescence ratio read?
**A.** Its switch fluorescence ratio is 1.62.

**Q.** CTGCGGTGGC was tested. Which switch fluorescence ratio did it give?
**A.** The switch fluorescence ratio was 1.04.

**Q.** CTGCGTAGAA was tested. Which switch fluorescence ratio did it give?
**A.** Its switch fluorescence ratio is 1.02.

**Q.** How did the switch fluorescence ratio turn out when CTGCGTTAAT was run?
**A.** The switch fluorescence ratio was 1.06.

**Q.** How did the switch fluorescence ratio turn out when CTGCGTTGTT was run?
**A.** The switch fluorescence ratio was 2.47.

**Q.** CTGCTCAATG was tested. Which switch fluorescence ratio did it give?
**A.** Its switch fluorescence ratio is 1.09.

**Q.** With CTGCTTAACA as the sequence, how does the switch fluorescence ratio read?
**A.** Its switch fluorescence ratio is 1.03.

**Q.** For CTGCTTAGAC, which switch fluorescence ratio is on record?
**A.** The switch fluorescence ratio was 1.42.

**Q.** How did the switch fluorescence ratio turn out when CTGCTTATTG was run?
**A.** The switch fluorescence ratio was 0.975.

**Q.** Which switch fluorescence ratio does the source give for CTGCTTGCCA here?
**A.** The switch fluorescence ratio was 1.

**Q.** How did the switch fluorescence ratio turn out when CTGGAATTAG was run?
**A.** The switch fluorescence ratio was 1.05.

**Q.** CTGGACTTTA was tested. Which switch fluorescence ratio did it give?
**A.** Its switch fluorescence ratio is 1.06.

**Q.** Which switch fluorescence ratio does the source give for CTGGATAATA here?
**A.** Its switch fluorescence ratio is 1.01.

**Q.** With CTGGATTCGA as the sequence, how does the switch fluorescence ratio read?
**A.** Its switch fluorescence ratio is 1.01.

**Q.** With CTGGCACGTT as the sequence, how does the switch fluorescence ratio read?
**A.** Its switch fluorescence ratio is 1.

**Q.** With CTGGCAGTTG as the sequence, how does the switch fluorescence ratio read?
**A.** The switch fluorescence ratio was 1.01.

**Q.** How did the switch fluorescence ratio turn out when CTGGCATAGT was run?
**A.** The switch fluorescence ratio was 1.04.

**Q.** How did the switch fluorescence ratio turn out when CTGGGAAAGA was run?
**A.** Its switch fluorescence ratio is 0.985.

**Q.** Which switch fluorescence ratio does the source give for CTGGGAGCGC here?
**A.** The switch fluorescence ratio was 1.16.

**Q.** Which switch fluorescence ratio does the source give for CTGGGCATAG here?
**A.** The switch fluorescence ratio was 1.19.

**Q.** For CTGGGGAATT, which switch fluorescence ratio is on record?
**A.** The switch fluorescence ratio was 1.01.

**Q.** CTGGGGGCCC was tested. Which switch fluorescence ratio did it give?
**A.** Its switch fluorescence ratio is 1.02.

**Q.** Which switch fluorescence ratio does the source give for CTGGGGGCT here?
**A.** The switch fluorescence ratio was 1.01.

**Q.** Which switch fluorescence ratio does the source give for CTGGGTACCC here?
**A.** Its switch fluorescence ratio is 1.03.

**Q.** How did the switch fluorescence ratio turn out when CTGGGTATAA was run?
**A.** The switch fluorescence ratio was 1.

**Q.** With CTGGGTGGG as the sequence, how does the switch fluorescence ratio read?
**A.** The switch fluorescence ratio was 1.

**Q.** Which switch fluorescence ratio does the source give for CTGGTAATG here?
**A.** Its switch fluorescence ratio is 1.01.

**Q.** CTGGTCACCC was tested. Which switch fluorescence ratio did it give?
**A.** Its switch fluorescence ratio is 1.04.

**Q.** For CTGGTGATC, which switch fluorescence ratio is on record?
**A.** The switch fluorescence ratio was 0.991.

**Q.** With CTGGTGTGCA as the sequence, how does the switch fluorescence ratio read?
**A.** The switch fluorescence ratio was 0.997.

**Q.** Which switch fluorescence ratio does the source give for CTGGTTAAGC here?
**A.** Its switch fluorescence ratio is 0.973.

**Q.** With CTGGTTATGA as the sequence, how does the switch fluorescence ratio read?
**A.** Its switch fluorescence ratio is 1.

**Q.** Which switch fluorescence ratio does the source give for CTGTACGGAC here?
**A.** The switch fluorescence ratio was 1.34.

**Q.** CTGTAGAACC was tested. Which switch fluorescence ratio did it give?
**A.** The switch fluorescence ratio was 1.05.

**Q.** CTGTAGACAG was tested. Which switch fluorescence ratio did it give?
**A.** The switch fluorescence ratio was 1.03.

**Q.** CTGTAGCCTC was tested. Which switch fluorescence ratio did it give?
**A.** Its switch fluorescence ratio is 1.86.

**Q.** CTGTATAGAT was tested. Which switch fluorescence ratio did it give?
**A.** The switch fluorescence ratio was 0.941.

**Q.** With CTGTATCGAT as the sequence, how does the switch fluorescence ratio read?
**A.** The switch fluorescence ratio was 0.995.

**Q.** Which switch fluorescence ratio does the source give for CTGTATCTAC here?
**A.** Its switch fluorescence ratio is 1.07.

**Q.** How did the switch fluorescence ratio turn out when CTGTATTTCA was run?
**A.** Its switch fluorescence ratio is 1.03.

**Q.** For CTGTCACGAG, which switch fluorescence ratio is on record?
**A.** The switch fluorescence ratio was 1.05.

**Q.** Which switch fluorescence ratio does the source give for CTGTCAGGTC here?
**A.** The switch fluorescence ratio was 1.02.

**Q.** With CTGTCATCCT as the sequence, how does the switch fluorescence ratio read?
**A.** The switch fluorescence ratio was 1.03.

**Q.** How did the switch fluorescence ratio turn out when CTGTCATTTC was run?
**A.** Its switch fluorescence ratio is 0.99.

**Q.** Which switch fluorescence ratio does the source give for CTGTGAAGCG here?
**A.** The switch fluorescence ratio was 0.962.

**Q.** For CTGTGAGCTA, which switch fluorescence ratio is on record?
**A.** The switch fluorescence ratio was 1.41.

**Q.** How did the switch fluorescence ratio turn out when CTGTGAGGGA was run?
**A.** The switch fluorescence ratio was 0.998.

**Q.** With CTGTGATCGA as the sequence, how does the switch fluorescence ratio read?
**A.** Its switch fluorescence ratio is 1.01.

**Q.** With CTGTGCAACA as the sequence, how does the switch fluorescence ratio read?
**A.** The switch fluorescence ratio was 1.02.

**Q.** How did the switch fluorescence ratio turn out when CTGTGCATCT was run?
**A.** The switch fluorescence ratio was 1.01.

**Q.** How did the switch fluorescence ratio turn out when CTGTGCTAGC was run?
**A.** The switch fluorescence ratio was 0.942.
